The values that follow come from the supplement of paper PMC11060735.

Among all 1,800 compounds or so, about 50 (3%) showed activity. This is one part of the list.
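Note: fibroblasts sorted 14 days after bleomycin, GFP+ and GFP− mixed 1:1 in 384-well plates (GFP− as in-well control), imaged after Hoechst and NucView530 staining, reference wells lacked compound.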

This experiment deals with mouse p16Ink4a+/- lung fibroblasts (INKBRITE, bleomycin-injured). Kind of experiment: percentage of GFP+ (p16Ink4a+) fibroblasts among all cells in well; higher = less depletion of p16Ink4a+ cells, active = 20 or less. To be noted: 1 µM; 3 days.
Consider `CCOC(=O)c1ccc(N)cc1` [Benzocaine], for which the “percentage of GFP+” value is inactive: 52.1%.

For `NC(=O)c1cccc(-c2cccc(OC(=O)NC3CCCCC3)c2)c1`, the “percentage of GFP+” value was inactive: 41.3%.

For `O=C(O)C1=CC(O)C(O)[C@H](O)C1` (some centres undefined) [Shikimic Acid], the “percentage of GFP+” value was inactive: 30.8%.

`CNCc1ccc(-c2cc(-c3nc(-c4ccc(S(=O)(=O)C(C)C)cc4)cnc3N)on2)cc1`: the “percentage of GFP+” value was inactive: 40%.

Regarding `NC[C@H]1CC[C@@H](C(=O)O)CC1` [Tranexamic Acid], the “percentage of GFP+” value was inactive: 45.5%.

With `O=C(O)CCc1nc(-c2ccccc2)c(-c2ccccc2)o1` [Oxaprozin], the “percentage of GFP+” value was inactive: 46%.

For the compound `COc1cc(/C=C/C(=O)O)ccc1O` [Ferulic Acid], the “percentage of GFP+” value was inactive: 43.1%.

As to `O=C(O[C@@H]1Cc2c(O)cc(O)cc2O[C@@H]1c1cc(O)c(O)c(O)c1)c1cc(O)c(O)c(O)c1` [Epigallocatechin-3-monogallate], the “percentage of GFP+” value is inactive: 40.6%.

Consider `CCCCC1=NC2(CCCC2)C(=O)N1Cc1ccc(-c2ccccc2-c2nn[nH]n2)cc1` [Irbesartan], for which the “percentage of GFP+” value is inactive: 39.6%.

Turning to `N#Cc1ccc2[nH]cc(CCCCN3CCN(c4ccc5oc(C(N)=O)cc5c4)CC3)c2c1` [Vilazodone], the “percentage of GFP+” value was inactive: 44.8%.

With `CC(C)=CCC[C@](C)(O[C@@H]1O[C@H](CO[C@@H]2OC[C@@H](O)[C@H](O)[C@H]2O)[C@@H](O)[C@H](O)[C@H]1O)[C@H]1CC[C@]2(C)[C@@H]1[C@H](O)C[C@@H]1[C@@]3(C)CC[C@H](O[C@@H]4O[C@H](CO)[C@@H](O)[C@H](O)[C@H]4O)C(C)(C)[C@@H]3CC[C@]12C` [Gynostemma Extract], the “percentage of GFP+” value was inactive: 45.5%.

Turning to `C[C@H](NC(=O)/C(C#N)=C/c1cccc(Br)n1)c1ccccc1`, the “percentage of GFP+” value is inactive: 43%.

For `CN1CCC(=C2c3ccccc3CCc3cccnc32)CC1` [Azatadine], the “percentage of GFP+” value is inactive: 53.9%.

Consider `COc1ccc([C@@H]2CC(=O)c3c(O)cc(O)cc3O2)cc1O` [Hesperetin], for which the “percentage of GFP+” value was inactive: 47.8%.

In the case of `O=c1c(O)c(-c2ccc(O)cc2O)oc2cc(O)cc(O)c12` [Morin], the “percentage of GFP+” value is inactive: 42.4%.

`C[C@@H]1C/C=C/C=C/C=C/C=C/C(O[C@@H]2O[C@H](C)[C@@H](O)[C@H](N)[C@@H]2O)C[C@@H]2O[C@](O)(C[C@@H](O)C[C@H]3O[C@@H]3/C=C/C(=O)O1)C[C@H](O)[C@H]2C(=O)O` (some centres undefined) [Natamycin]: the “percentage of GFP+” value was inactive: 41.6%.

`CCN(CC)CCCC(C)Nc1c2ccc(Cl)cc2nc2ccc(OC)cc12` (centres undefined) [Quinacrine]: the “percentage of GFP+” value was inactive: 46.6%.

As to `O=C1CCc2cc(OCCCCc3nnnn3C3CCCCC3)ccc2N1` [Cilostazol], the “percentage of GFP+” value is inactive: 45.1%.

On to `O=C(O)CCc1ccc(NCc2cccc(Oc3ccccc3)c2)cc1`, for which the “percentage of GFP+” value was inactive: 49.9%.

`COc1ccc(Cl)cc1NC(=O)Nc1cc(C)nc2ccccc12`: the “percentage of GFP+” value is inactive: 49.7%.

As for `COC(=O)C1=CO[C@@H](O[C@@H]2O[C@H](CO)[C@@H](O)[C@H](O)[C@H]2O)[C@@H]2C(CO)=CC[C@H]12` [Geniposide], the “percentage of GFP+” value is inactive: 45.3%.

Turning to `CC(c1cc2ccccc2s1)N(O)C(N)=O` (centres undefined) [Zileuton], the “percentage of GFP+” value is inactive: 36.8%.

In the case of `C=C[C@H]1CN2CC[C@H]1C[C@H]2[C@H](O)c1ccnc2ccc(OC)cc12` [Quinine], the “percentage of GFP+” value is inactive: 39.1%.

Regarding `C[C@@H]1[C@H](O)[C@@H](C)/C=C/C=C/C=C/C=C/C=C/C=C/C=C/[C@H](O[C@@H]2O[C@H](C)[C@@H](O)[C@H](N)[C@@H]2O)C[C@@H]2O[C@](O)(C[C@@H](O)C[C@@H](O)[C@H](O)CC[C@@H](O)C[C@@H](O)CC(=O)O[C@H]1C)C[C@H](O)[C@H]2C(=O)O` [Amphotericin B], the “percentage of GFP+” value is inactive: 44.2%.

Turning to `c1ccc2c(Oc3nc(Nc4ccc(N5CCOCC5)cc4)c4ncn(C5CCCCC5)c4n3)cccc2c1` [Purmorphamine], the “percentage of GFP+” value was inactive: 32.7%.

Take `COc1ccc(CC2c3cc(OC)c(OC)cc3CC[N+]2(C)CCC(=O)OCCCCCOC(=O)CC[N+]2(C)CCc3cc(OC)c(OC)cc3C2Cc2ccc(OC)c(OC)c2)cc1OC` (centres undefined) [Atracurium Besylate]: the “percentage of GFP+” value was inactive: 36.5%.

For the compound `CC(=O)[C@H]1CC[C@H]2[C@@H]3CC=C4C[C@@H](O)CC[C@]4(C)[C@H]3CC[C@]12C` [Pregnenolone], the “percentage of GFP+” value is inactive: 41.7%.

For the compound `COc1cccc(Nc2c(C(N)=O)cnc3c(C)cc(S(=O)(=O)c4cccc(C(=O)N(C)C)c4)cc23)c1`, the “percentage of GFP+” value is inactive: 49.9%.

Turning to `CC(C(=O)O)c1ccc2c(c1)CC(=O)c1ccccc1S2` (centres undefined) [Zaltoprofen], the “percentage of GFP+” value was inactive: 45.1%.

`CCC[C@H](NC(=O)[C@@H]1[C@H]2CCC[C@H]2CN1C(=O)[C@@H](NC(=O)[C@@H](NC(=O)c1cnccn1)C1CCCCC1)C(C)(C)C)C(=O)C(=O)NC1CC1` [Telaprevir]: the “percentage of GFP+” value is inactive: 42.6%.

For `Cc1nc(NC(=O)N2CCC[C@H]2C(N)=O)sc1-c1ccnc(C(C)(C)C(F)(F)F)c1`, the “percentage of GFP+” value was inactive: 34.4%.

In the case of `CCC[C@H](NC(=O)/C(C#N)=C/c1cccc(Br)n1)c1ccccc1` [Degrasyn], the “percentage of GFP+” value is active: 13.1%.

In the case of `CCN(c1cc(-c2ccc(CN3CCOCC3)cc2)cc(C(=O)NCc2c(C)cc(C)nc2O)c1C)C1CCOCC1`, the “percentage of GFP+” value was inactive: 54.5%.

As to `CCn1c(-c2nonc2N)nc2c(C#CC(C)(C)O)ncc(OC[C@H]3CCCNC3)c21`, the “percentage of GFP+” value is inactive: 40.4%.

Regarding `C[C@H](NC(=O)CCc1nc(O)c2ccccc2n1)c1ccccc1`, the “percentage of GFP+” value is inactive: 48.5%.

On to `O=C(CCCN1CCN(c2ccccn2)CC1)c1ccc(F)cc1` [Azaperone], for which the “percentage of GFP+” value is inactive: 53.9%.

On to `CCCCc1oc2ccc(NS(C)(=O)=O)cc2c1C(=O)c1ccc(OCCCN(CCCC)CCCC)cc1` [Dronedarone], for which the “percentage of GFP+” value was inactive: 38.1%.

As to `CN1c2cc(O)c(N=NC(N)=O)cc2CC1S(=O)(=O)O` (centres undefined) [Carbazochrome sodium sulfonate], the “percentage of GFP+” value is inactive: 43%.

With `O=C1CC2(CCCC2)CC(=O)N1CCCCN1CCN(c2ncccn2)CC1` [Buspirone], the “percentage of GFP+” value is inactive: 46.7%.

`Cc1ccc(C(=O)NCCCCCC(=O)Nc2ccccc2N)cc1`: the “percentage of GFP+” value was inactive: 40.4%.

Regarding `CCN(CC)C(=O)/C(C#N)=C/c1cc(O)c(O)c([N+](=O)[O-])c1` [Entacapone], the “percentage of GFP+” value was inactive: 37.1%.

For `CCCC(=O)OCO/C(O)=C1\C(C)=NC(C)=C(C(=O)OC)C1c1cccc(Cl)c1Cl` (centres undefined) [Clevidipine], the “percentage of GFP+” value is inactive: 45.7%.

With `CC(C)C[C@H](NC(=O)[C@H](CCc1ccccc1)NC(=O)CN1CCOCC1)C(=O)N[C@@H](Cc1ccccc1)C(=O)N[C@@H](CC(C)C)C(=O)[C@@]1(C)CO1` [Carfilzomib], the “percentage of GFP+” value was active: 4.67%.

On to `O=C[C@H](O)[C@@H](O)[C@H](O)[C@H](O)CO` [D-glucose], for which the “percentage of GFP+” value was inactive: 42.5%.

On to `Cc1cc(Nc2ccc(NC(=O)c3ccc(Nc4ccnc5ccccc45)cc3)cc2)nc(N)n1`, for which the “percentage of GFP+” value is inactive: 49.5%.

Turning to `C=CC(=O)Nc1cccc(Nc2nc(Nc3ccc(OCCOC)cc3)ncc2F)c1`, the “percentage of GFP+” value was inactive: 41.3%.

With `COc1ccc(-c2cnc3c(-c4cccc5ncccc45)cnn3c2)cc1`, the “percentage of GFP+” value was inactive: 45.2%.

In the case of `C=CC1=C(C(=O)O)N2C(=O)[C@@H](NC(=O)/C(=N\O)c3csc(N)n3)[C@H]2SC1` [Cefdinir], the “percentage of GFP+” value is inactive: 49.9%.

With `CCN(CCO)CCCOc1ccc2c(Nc3cc(CC(=O)Nc4cccc(F)c4)[nH]n3)ncnc2c1`, the “percentage of GFP+” value was inactive: 41%.

For `Cc1cc(C)c(Nc2ccnc(Nc3ccc(C#N)cc3)n2)c(C)c1` [Dapivirine], the “percentage of GFP+” value is inactive: 46%.

In the case of `O=C1OC(CN2CCOCC2)CN1/N=C/c1ccc([N+](=O)[O-])o1` (centres undefined) [Furaltadone], the “percentage of GFP+” value was inactive: 50.3%.

As for `O=C(C1CCCCC1)N1CC(=O)N2CCc3ccccc3C2C1` (centres undefined) [Praziquantel], the “percentage of GFP+” value is inactive: 44.9%.

As for `Cc1cccc(C#Cc2ccccc2)n1`, the “percentage of GFP+” value was inactive: 45%.

Consider `C[C@@H](c1ncncc1F)[C@](O)(Cn1cncn1)c1ccc(F)cc1F` [Voriconazole], for which the “percentage of GFP+” value is inactive: 53.2%.

Regarding `CCOC(=O)C1=C(N)Oc2ccc(Br)cc2[C@H]1[C@H](C#N)C(=O)OCC`, the “percentage of GFP+” value is inactive: 45%.

In the case of `CC(=O)O[C@]1(C(C)=O)CC[C@H]2[C@@H]3CCC4=CC(=O)CCC4=C3[C@@H](c3ccc(N(C)C)cc3)C[C@@]21C` [Ulipristal], the “percentage of GFP+” value is inactive: 42.8%.

On to `NC12CC3CC(CC(C3)C1)C2` [Amantadine], for which the “percentage of GFP+” value was inactive: 40.2%.

Regarding `CC(C)(Oc1ccc(Cl)cc1)C(=O)O` [Clofibric Acid], the “percentage of GFP+” value is inactive: 44.7%.

Consider `CC1(C)[C@@H](O)CC[C@]2(C)[C@H]3C(=O)C=C4[C@@H]5C[C@@](C)(C(=O)O)CC[C@]5(C)CC[C@@]4(C)[C@]3(C)CC[C@@H]12` [Enoxolone], for which the “percentage of GFP+” value is inactive: 43.2%.

On to `Cc1ccccc1C(=O)Nc1ccc(C(=O)N2CCCC(N(C)C)c3ccccc32)cc1` (centres undefined) [Mozavaptan], for which the “percentage of GFP+” value is inactive: 57.8%.

Regarding `COc1cc([C@@H]2c3cc4c(cc3[C@@H](O[C@@H]3O[C@@H]5CO[C@@H](c6cccs6)O[C@H]5[C@H](O)[C@H]3O)[C@H]3COC(=O)[C@H]23)OCO4)cc(OC)c1O` [Teniposide], the “percentage of GFP+” value is inactive: 21.1%.

Turning to `CCO[C@@H]1OC(=O)C[C@@H]1NC(=O)[C@@H]1CCCN1C(=O)[C@@H](NC(=O)c1ccc(N)c(Cl)c1)C(C)(C)C`, the “percentage of GFP+” value is inactive: 35.6%.

As for `CCC1(c2ccccc2)C(=O)NCNC1=O` [Primidone], the “percentage of GFP+” value was inactive: 38.9%.

Regarding `CO[C@H]1/C=C/O[C@@]2(C)Oc3c(C)c(O)c4c(O)c(c5c(nc6cc(C)ccn65)c4c3C2=O)NC(=O)/C(C)=C\C=C\[C@H](C)[C@H](O)[C@@H](C)[C@@H](O)[C@@H](C)[C@H](OC(C)=O)[C@@H]1C` [Rifaximin], the “percentage of GFP+” value is inactive: 46%.
